Some of these densities may be calculated back from excess volumes.
Assay: xn = mol fraction of the nth substance listed
Conditions: 101 kPa

`CC(=O)[O-].CCCCC[n+]1ccccc1` + O showed a mass density (293.15 K, x1 = 0.9036) of 1267.1 kg/m3, a mass density (293.15 K, x1 = 0.9143) of 1267.5 kg/m3 and a mass density (293.15 K, x1 = 0.9469) of 1268.6 kg/m3. For the same compound, the mass density (293.15 K, x1 = 0.9706) was 1269.6 kg/m3, the mass density (293.15 K, x2 = 0.0046) was 1270.6 kg/m3 and the mass density (298.15 K, x1 = 0.9036) was 1264.1 kg/m3. For the same compound, the mass density (298.15 K, x1 = 0.9143) was 1264.5 kg/m3, the mass density (298.15 K, x1 = 0.9294) was 1265 kg/m3 and the mass density (298.15 K, x1 = 0.9469) was 1265.7 kg/m3. It also gave a mass density (298.15 K, x1 = 0.9706) of 1266.7 kg/m3, a mass density (298.15 K, x2 = 0.0046) of 1267.9 kg/m3 and a mass density (303.15 K, x1 = 0.9036) of 1261 kg/m3. The mass density (303.15 K, x1 = 0.9143) was 1261.4 kg/m3, the mass density (303.15 K, x1 = 0.9294) was 1261.8 kg/m3 and the mass density (303.15 K, x1 = 0.9469) was 1262.7 kg/m3. For the same compound, the mass density (303.15 K, x1 = 0.9706) was 1263.8 kg/m3, the mass density (303.15 K, x2 = 0.0046) was 1264.9 kg/m3 and the mass density (308.15 K, x1 = 0.9036) was 1258 kg/m3. The mass density (308.15 K, x1 = 0.9143) was 1258.4 kg/m3, the mass density (308.15 K, x1 = 0.9294) was 1258.9 kg/m3 and the mass density (308.15 K, x1 = 0.9469) was 1259.7 kg/m3. For the same compound, the mass density (308.15 K, x1 = 0.9706) was 1260.8 kg/m3, the mass density (308.15 K, x2 = 0.0046) was 1261.9 kg/m3 and the mass density (313.15 K, x1 = 0.9036) was 1255 kg/m3. For the same compound, the mass density (313.15 K, x1 = 0.9143) was 1255.5 kg/m3, the mass density (313.15 K, x1 = 0.9294) was 1255.9 kg/m3 and the mass density (313.15 K, x1 = 0.9469) was 1256.8 kg/m3. The mass density (313.15 K, x1 = 0.9706) was 1257.8 kg/m3, the mass density (318.15 K, x1 = 0.9036) was 1252 kg/m3 and the mass density (318.15 K, x1 = 0.9143) was 1252.4 kg/m3. It also gave a mass density (318.15 K, x1 = 0.9294) of 1253 kg/m3, a mass density (318.15 K, x1 = 0.9469) of 1254 kg/m3 and a mass density (318.15 K, x1 = 0.9706) of 1254.8 kg/m3. It also gave a mass density (318.15 K, x2 = 0.0046) of 1255.9 kg/m3, a mass density (323.15 K, x1 = 0.9036) of 1249 kg/m3 and a mass density (323.15 K, x1 = 0.9143) of 1249.7 kg/m3. For the same compound, the mass density (323.15 K, x1 = 0.9706) was 1251.8 kg/m3, the mass density (323.15 K, x2 = 0.0046) was 1252.9 kg/m3 and the mass density (328.15 K, x1 = 0.9036) was 1245.9 kg/m3. It also gave a mass density (328.15 K, x1 = 0.9143) of 1246.6 kg/m3, a mass density (328.15 K, x1 = 0.9294) of 1247.1 kg/m3 and a mass density (328.15 K, x2 = 0.0046) of 1250 kg/m3. For the same compound, the mass density (333.15 K, x1 = 0.9036) was 1242.8 kg/m3, the mass density (333.15 K, x1 = 0.9294) was 1244 kg/m3 and the mass density (333.15 K, x1 = 0.9469) was 1244.9 kg/m3. The mass density (333.15 K, x1 = 0.9706) was 1245.8 kg/m3, the mass density (333.15 K, x2 = 0.0046) was 1247 kg/m3 and the mass density (338.15 K, x1 = 0.9036) was 1239.9 kg/m3. It also gave a mass density (338.15 K, x1 = 0.9294) of 1241 kg/m3, a mass density (338.15 K, x1 = 0.9469) of 1242 kg/m3 and a mass density (338.15 K, x2 = 0.0046) of 1244 kg/m3. The mass density (343.15 K, x1 = 0.9036) was 1237.1 kg/m3, the mass density (343.15 K, x1 = 0.9143) was 1237.7 kg/m3 and the mass density (343.15 K, x1 = 0.9294) was 1238.2 kg/m3. It also gave a mass density (343.15 K, x1 = 0.9469) of 1239 kg/m3, a mass density (343.15 K, x1 = 0.9706) of 1239.8 kg/m3 and a mass density (343.15 K, x2 = 0.0046) of 1241.1 kg/m3.
